± gives the standard deviation of the averaged measurements. The list shows a part of the results.
Each sequence was assayed on PfAP2-LT AP2 domain (GST-tagged) (assay: gcPBM binding intensity (ln(normalized median fluorescence intensity)); higher = stronger DNA binding).
In short: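 DNA-binding domains from P. falciparum, fused to GST and produced in E. coli, were put on an Agilent 4 × 180k double-stranded probe array for 1 h in 1× PBS holding 1% milk, 0.2 mg/ml BSA, 0.5% salmon testes DNA and 0.03% Triton X-100. Probes were primer-extended, 36 bp long and drawn from intergenic genomic regions, with negative controls included. After Alexa488 anti-GST antibody detection and a 488 nm scan, binding intensity was set as the highest Masliner-normalised natural-log median intensity across replicate spots of either probe orientation.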

Sequence | gcPBM binding intensity (ln)
TACATTATAAATATTACACACTTTATAAAATAATAA [CACACA_site6096] | 8.56 ± 0.42
ATAATATTTTTATGTACACACCTTAATCCTTAAAAG [CACACA_site5881] | 8.77 ± 0.38
TTAACCACTAAAAGTACACACATATATACATATATA [CACACA_site3912] | 8.93 ± 0.37
TCCTTTTTTTTTTATGCACACACAATTATACATTCC [CACACA_site9287] | 9.62 ± 0.4
AAACAAAAAAGAAAAACAATGAGATAAAGAAGAGAA [CACACA_negctrl_site804] | 8.96 ± 0.5
TTTAATTATTTATTTTGTACATATATTATATATATA [XGTACX_site5760] | 8.7 ± 0.45
AAAAGAAAAATATTCACACATATAAATAATATATAA [CACACA_site4201] | 8.69 ± 0.53
ATTTTTATATATATCTGTACTAAAAAAAAAAAAAAA [XGTACX_site5258] | 8.14 ± 0.32
AGAAGTAAAAAAATAGCACACACACTAATACCAACA [CACACA_site8354] | 9.8 ± 0.27
TATTTATATATTTGTTGTACGTATTTATATATTCTT [XGTACX_site3622] | 8.93 ± 0.47
TTATATTAATATTATATTTAAAAATAAAATATAAAT [TGCATGCA_negctrl_site79] | 8.11 ± 0.34
ATTAATTTGATTTTAATAAGAATATTTGTGGGGAAT [GTGCAC_negctrl_site198] | 8.53 ± 0.16
TTTTCAATATATATATGCTGAATTTATAATTTGTAT [CACACA_negctrl_site1774] | 8.68 ± 0.49
ATATTGATTTGTGGCACACATATAATATATTCCTAT [CACACA_site3046] | 8.95 ± 0.51
TTTTATTTTTGTTGGTCCCTCATTTAAGTTAATAAA [TGCATGCA_negctrl_site465] | 8.45 ± 0.63
TGAATAATAAAAAATACACACACATATATATATATT [CACACA_site9146] | 9.39 ± 0.24
ACCATATAAAGTTAGGTGCATTTGTATGTATCTTAC | 8.87 ± 0.37
TCTTGTTCGCCCTATTGTACAAACATATATTGTGAT [XGTACX_site2884] | 9 ± 0.48
TTATTTTGATCTGGTTGTACATATAATATATAGTGG [XGTACX_site357] | 8.76 ± 0.33
AAAAGAGAAATGGGCACACACACACCCATTATATAT [CACACA_site1530] | 9.57 ± 0.26
ATATATACATACATATGTACATATGTAGATATATTT [XGTACX_site1230] | 9.03 ± 0.27
ATTTTTTTTGTTTATTCTTATGTGGTTATTAAATTA [CACACA_negctrl_site1000] | 8.72 ± 0.52
TACGTTTTAAAACACACACACAAAAAAAAAAAAAAA [CACACA_site3876] | 9.04 ± 0.4
ATTATGAAATATCGTGCACACACGAATAATATAAGA [CACACA_site1294] | 9.15 ± 0.27

Source: the supplement of paper PMC11417369
